Laboratory results taken from PubChem BioAssay (NCI).
Some structures have more than one record in an assay (separate samples or runs), and their calls can disagree.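 96-well plates, one dose, 48 hours. Percent growth reported; active if below 10.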 A number of entries come with more than one value. This list holds those alone. An entry can have further records. The screen tested this drug many times, at the concentration stated with the values; one value stands for one run. Marks such as (2×) say how often a value occurs here.

Test system: NCI-H23 lung
Assay: NCI-60 one-dose screen, 48 h (100 = growth as untreated, 0 = no growth, -100 = all killed)
Settings: 0.25 µM

COc1cccc2c1C(=O)c1c(O)c3c(c(O)c1C2=O)C[C@@](O)(C(=O)CO)C[C@@H]3OC1CC(N)C(O)C(C)O1 (stereo not given in full) was tested, and the growth (runs of 2006) was “inactive: 22.2%, 40.6%”, the growth (runs of 2007) was “inactive: 14.9, 34.6 (2×), 40.5 (2×), 35.9, 43.7 (2×), 30.6 (2×), 40.1 (2×), 41.4, 41.9 (2×), 39.5 (2×), 46.5, 43.4, 44.9, 47.1, 42.8, 36.8, 24.3, 46.9 (2×), 50, 48.8, 30.1, 41.8, 58.4, 33.5, 28.2, 51.7 (2×), 29.7, 36.6, 66, 56.4, 45, 28.9% and active: 8.02%, 5.16%” and the growth (runs of 2008) was “inactive: 47.1, 35.2 (2×), 45.2, 30.6 (2×), 42.3 (2×), 47.4, 28.5, 35.6, 44.1, 45.7, 43.5, 46.4, 51.1, 60.3, 22.8, 33.1, 35 (2×), 32, 36.3, 16.6, 22.4, 10.1, 23.7, 36.6, 31.2, 101, 24.3, 33.2, 50, 32.5, 48.4, 48.6, 33.8, 15, 30.8, 50.2, 46.7, 43.3, 36, 37.6, 43.7, 58.9, 57.5, 42.5, 52.4, 43, 42.8, 48.9% and active: 6.26%”. For the same molecule, the growth (runs of 2009) was “inactive: 41.7 (2×), 16.3, 21.7, 29.3 (2×), 35.3, 36.6, 36.1, 43.3, 31.9, 41.8, 40.6, 43.5, 33.3, 43, 20.3 (2×), 11.5, 18, 22.5, 29.9, 21.5, 23.9, 14.2, 23.3, 26.2, 28.8, 34.3, 25.9, 23.8, 40.5, 24.5, 24.6, 32.1 (2×), 27.7, 27.1, 18.9 (2×), 27.2, 17.6, 30.2, 29.1 (2×), 22.2, 15.8, 33.8, 16.7, 16.1, 31.2, 39, 23.7, 56.3, 37.8, 39.6, 38.7, 51.2, 30.3, 42.6, 39.4, 55.9, 52.5, 45.2, 40.9% and active: -2.53%, 3.33%”, the growth (runs of 2010) was “inactive: 34.4 (2×), 40.1, 32.7 (2×), 33.4, 33.1, 38.3, 29.9, 30.8, 44, 47, 47.2, 46.5, 43.1, 43.2, 43.6, 39, 31.6, 42.4 (2×), 52.6, 28.8, 33.5, 24.9, 25.1, 33.2, 32.6, 45.7, 30.3, 28.3, 45, 35.2, 21, 40, 38.5, 37, 37.9, 39.9, 41.5, 40.9, 35.1, 36.3, 47.1, 41.7, 40.6, 48 (2×), 45.9, 50.4, 47.3, 49.5, 44.9, 52.9, 34.6%” and the growth (runs of 2011) was “inactive: 51.8, 39.3, 46.5 (2×), 42.2, 49.2, 47.6, 43.6 (2×), 48.4, 36.2, 44.5, 48.2, 59.3, 50 (2×), 55.7, 53.6, 51.2 (2×), 48.6, 49.3, 45.5, 41.7, 39.9, 50.1, 49.8, 45.8, 39.1 (2×), 46, 32.1 (2×), 44.4, 35, 34.2, 38.4 (2×), 22.1, 27.5, 25.7, 39.6, 38.6, 31.3, 32.8, 32.5 (2×), 36.7, 34.6, 28.7, 28.9, 40.9 (2×), 38.9, 43.8, 47.3, 38.1, 40.7, 35.2, 34.7, 32, 34.1, 20%”. For the same molecule, the growth (runs of 2012) was “inactive: 33.2, 21, 24.8 (2×), 33.4 (2×), 31.2, 32.5, 36.1, 42.1, 45.5, 23.9, 17.8, 24.2, 24.6 (2×), 28.5, 28.7, 20.8, 23.6 (2×), 24.3, 25.9, 33.3, 49.4, 35.5, 35.6, 33.1, 35.2, 32.1, 28.8, 35.1, 37.7, 26.3, 26.4, 10.3, 48.4, 53.4, 44.5, 40.5, 47.8, 57.5 (2×), 57.3, 62.1, 67.7, 65.5, 66.3, 71.6, 75.9, 56.5, 60.3, 56, 47.6, 60.7, 46.5, 62.5, 58.2, 47.7, 54.1, 48, 39.7, 41.6, 46.4, 51.8, 42.4, 59.8, 57.1, 55, 49.8, 62.3, 47.3%”, the growth (runs of 2013) was “inactive: 37.8, 47.3, 48.5, 37.7 (2×), 55.6, 40.7, 55.7, 42.1, 45.9, 62.8, 59.2, 57.6, 61.6, 50.7, 63.9, 51.6 (2×), 60, 56, 71.5, 59.7, 48.7, 66, 51.8 (2×), 60.6, 52.7, 55 (2×), 39.7, 42.6, 54.8, 43.3, 53.4, 41.6, 52.9, 48.9, 52.2, 42.8, 54, 33, 34.9, 63.7, 58.6, 50.2, 45, 50, 48.6, 46.8, 50.5, 51.4, 47, 52, 47.7, 39.3, 24.3, 28.4, 36.3, 37.5, 29.2, 26.4, 31.9, 29.3, 41, 39.6, 40.4, 36.2, 24.1, 29.1, 34.6, 33.2%” and the growth (runs of 2014) was “inactive: 33.7, 39.2, 35.6 (2×), 26.5 (2×), 28.1, 29.3, 32.9, 29.4, 30.5 (2×), 27.7, 33.6, 25.7, 43.5, 44.6, 40.3, 42.5, 34.7, 40.2, 36.8, 41.5, 43.1, 47.6, 38.3, 41.4, 20.6, 24.7, 31.4 (2×), 30.6, 27.2, 35, 33.8 (2×), 32.7, 30 (2×), 38.6, 33.4, 25.9 (2×), 39.8, 37.2 (2×), 31.7 (2×), 33.9, 32.3, 30.2 (2×), 24.6, 24.1, 29.1 (2×), 25.8, 30.8, 39.5, 34.4, 33.2, 22.7 (2×), 18.9, 39.1, 26.3, 29.2, 28.2, 38.1, 22.9, 31.6, 41.1, 31.5, 42.6, 37.3, 35.5, 27.9%”. For the same molecule, the growth (runs of 2015) was “inactive: 33.8, 30.1 (2×), 36.6 (2×), 31.2, 29.1, 42.3, 34.1, 30.9 (3×), 37.3, 27.6, 41.1, 36.7, 36.8, 48.3, 32, 32.9, 27.2, 33.2 (2×), 34.7, 36.1, 33.7 (2×), 44.3, 41.2, 35.8, 40.9, 40.5, 32.1, 36.3 (2×), 28.8 (2×), 34.3 (3×), 28.3, 37.8, 19.4, 28.4, 28, 38.4, 42.1, 33, 19.8, 38.8, 29.6, 36.2, 43.3, 31.7, 37.9, 30.3, 41.4, 56.4, 25.7, 30.8, 22.1, 18.4, 35.9 (2×), 37.7 (2×), 23.2, 33.6 (2×), 45.8 (2×), 41.5 (2×), 28.6, 33.5, 39, 31.3, 47.5, 35.6, 40.2, 41.8%”, the growth (runs of 2016) was “inactive: 38.7, 35.9 (3×), 28.2, 34.2 (2×), 39.4, 43, 27.5 (2×), 35.8 (2×), 43.2, 31.4, 30.2, 45.1, 28.9 (2×), 41.4 (2×), 24.7, 36, 29.8, 36.7 (2×), 22.3, 33.8, 40.8, 33.7 (2×), 26, 34.9, 33, 35.2, 37 (2×), 30.4, 26.3, 31.5, 29.4, 30.6 (2×), 29.9, 36.3, 46.1 (2×), 34.3 (2×), 38.3, 42.9, 49, 53.1, 41.9, 37.9 (2×), 33.1, 36.5, 27.6, 36.8, 35.3, 39.5, 39.1, 33.9, 34.7, 38.5 (2×), 45, 39.9, 41.7, 37.7, 43.8 (2×), 44.5, 46, 48.8, 45.6, 47.7, 50, 44.1, 34.5, 36.1, 42.3, 35, 33.2, 37.8, 39, 39.2%” and the growth (runs of 2017) was “inactive: 39.3, 30.9, 33.3 (2×), 32.5 (2×), 33.8 (2×), 30.6, 30 (2×), 21.8, 29 (2×), 30.4 (2×), 29.4 (3×), 27.5 (2×), 32 (2×), 30.8 (2×), 32.2, 32.8, 30.2 (2×), 31, 28.7, 43.1, 49, 31.6 (2×), 36.6, 36, 34, 34.6 (2×), 24.1, 26.1, 34.9, 38.6, 26, 25.2, 29.9 (3×), 26.5, 41.3, 40.2, 27.6 (2×), 27.2, 26.6, 34.1, 35.9, 28.2 (2×), 25.1, 32.7, 37.5, 38.9, 43.6, 29.3, 27.4, 32.3, 25.9, 33.9, 34.3, 36.4, 34.5, 35.1 (2×), 29.6, 33.7, 34.8%”. The growth (runs of 2018) was “inactive: 27.9 (3×), 29.8, 24.5, 36.4, 33.6, 28.3, 30.4, 27.5, 34.2 (2×), 29, 37.6 (2×), 31.6, 36.1, 33.4, 38.5, 34.1 (2×), 43.5, 37.3, 36.3 (2×), 41, 29.1, 32.9, 31.7, 33.7, 32.7 (2×), 33.3, 35.3, 30, 34.3 (2×), 29.6, 32.3, 30.9, 39.9, 28.9, 26.6, 32.5, 33.8 (2×), 36.8, 30.3, 32.1, 39.6, 33.9, 38.7%”, the growth (runs of 2019) was “inactive: 22.3, 20, 30.4, 18.2, 20.5 (2×), 19.2, 26.3, 18, 20.3, 23.8, 22.4, 29.7, 28.3, 38.5, 30, 28.1, 26.2, 28.7, 37.9, 31.7, 24.6, 26.6, 32.1, 33.2, 30.1, 24.3, 22.2, 24.8, 35.7, 33.3, 31.3, 33.7, 28.4 (2×), 32.7, 31.4, 30.8, 25.8, 24.5, 26.7 (2×), 28.2, 29.6, 16.4%” and the growth (runs of 2020) was “inactive: 14.4, 17.5, 28.8, 23.6, 22.9, 25.8, 28.6, 29.6, 29.7, 23.2, 24.9, 28.7, 30.8, 29.2 (2×), 42.2, 31.4, 40.7, 39.8, 41, 32.1, 40.8, 44.1, 26.6%”.
